Laboratory results as given in PubChem BioAssay AID686979 (National Center for Advancing Translational Sciences (NCATS), 2013).
Out of some 420,000 compounds screened, about 50,000 (12%) were called active. Inconclusive results, whose numbers are uncertain, are shown with a selection of clear calls. The call rests on the fitted dose curve; in most records, active means well fitted inhibition curve with a large enough effect; inconclusive means small, poorly fitted or top-dose-only effect; inactive means flat fitted curve, though single readings scatter. Potencies of inconclusive entries are left out as doubtful fits.

Assay: qHTS for Inhibitors of human tyrosyl-DNA phosphodiesterase 1 (TDP1): qHTS in cells in presence of CPT; further: nearly all actives have a fitted effect of over 55% in size
Details: chicken DT40 Tdp1-/-;hTDP1 cells + 20 nM CPT, ATP luminescence, 48 h; activity change, negative = growth inhibition: at 46.2 µM (top of the series) unless noted
Method in brief: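 Cell growth measured by CellTiter-Glo luminescence after a minimum 48 h, 37 C compound exposure with 20 nM CPT in Tdp1-knockout DT40 cells stably expressing hTDP1, seeded 400/well; qHTS titration format.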
On the % scale 0 is the no-effect control and ±100 the full control effect; potency means the concentration at half of the fitted maximal effect; tags describe the fitted curve by direction and shape.

Row | SMILES | Potency | activity change, negative = growth inhibition
1 | CC(/C=C/c1ccc(C)o1)=C\C(=O)O | active: 11.6 µM | –
2 | Cn1cc(/C=C/c2ccnc3ccccc23)c2ccccc21 | inconclusive [inhibitor, single point] | –
3 | Cc1cc(C)c[n+](CC(=O)c2c(C)cc(C)c([N+](=O)[O-])c2C)c1 | – | inactive: -6.88%
4 | CCOC(=O)C1=NN(C(=O)c2ccccc2)C(O)(c2ccc(C)cc2)C1 (stereo unspecified) | inconclusive [inhibitor, single point] | –
5 | CCN1CCN(C(c2cccc(OC)c2OC)c2nnnn2Cc2ccco2)CC1 (stereo unspecified) | – | inactive: 4.04%
6 | CN1CCN(c2ccc(C(=O)c3ccccc3)cc2[N+](=O)[O-])CC1 | – | inactive: 0.0551%
7 | COc1ccc(C(=O)Nc2ccc(S(=O)(=O)N3CCCCC3)cc2)cc1OC | inconclusive [inhibitor, single point] | –
8 | COc1ccc(-n2nc(C(=O)NCC(=O)Nc3ccc(F)cc3)c3ccccc3c2=O)cc1 | – | inactive: -2.04%
9 | COc1cc(NC(=O)CN2C(=O)c3ccccc3S2(=O)=O)c(OC)cc1Cl | – | inactive: -2.88%
10 | CC(=O)Nc1ccc(S(=O)(=O)NNC(=O)CCC(=O)Nc2cc(C)ccc2C)cc1 | – | inactive: 1.59%
11 | CC(C)(c1ccc(O)cc1)c1ccc(O)c(C(=O)O)c1 | – | inactive: 2.27%
12 | COc1ccc(/C(C)=N/NC(=O)CNC(=O)c2ccncc2)c(OC)c1 | – | inactive: 1.59%
13 | CCN(CC)c1ncnc2scc(C3COc4ccccc4O3)c12 (stereo unspecified) | active: 16.4 µM | –
14 | COc1ccc(-c2c(=O)n(OC)c3ccccc3[n+]2[O-])cc1OC | active: 11.6 µM | –
15 | O=C(c1ccc(Cl)cc1)n1nc(-c2ccco2)nc1NCc1cccs1 | – | inactive: -0.688%
16 | O=C(CN(C(=O)CNS(=O)(=O)c1ccc(F)cc1)c1ccccc1F)NCc1ccco1 | – | inactive: 11.3%
17 | COc1cc(NC(=O)CCN2CCN(c3ccccc3OC)CC2)cc(OC)c1 | inconclusive [inhibitor, partial curve] | –
18 | O=C(Nc1cnc2sc3c(n2c1=O)CCCC3)c1ccc(F)cc1 | inconclusive [inhibitor, single point] | –
19 | COc1ccccc1CNc1ccnc(-c2ccccc2C(F)(F)F)n1 | inconclusive [inhibitor, single point] | –
20 | CN(C)c1ccccc1C(=O)c1ccccc1N(C)C | active: 4.61 µM | –
21 | Cc1cccc(NS(=O)(=O)c2cccc(C(=O)N3CCCCCCC3)c2)c1 | active: 18.4 µM | –
22 | COc1cc(OC)c(OC)cc1CNC(=O)c1cc(=O)[nH]c2ccccc12 | – | inactive: 16.1%
23 | CCOc1ccc(CSCCNC(=S)Nc2ccc(OC)cc2)cc1 | inconclusive [inhibitor, single point] | –
24 | CCN(c1ccccc1)S(=O)(=O)c1ccc(NCC2COc3ccccc3O2)nc1 (stereo unspecified) | active: 25.9 µM | –
25 | Cc1ccccc1S(=O)(=O)NC(=O)C1(C)CCN1C(=O)C/C=C/c1ccccc1 (stereo unspecified) | – | inactive: -23.7%

Row | SMILES | Potency | activity change, negative = growth inhibition
26 | O=C(N/N=C1\CCCc2ccccc21)c1ccccc1Cl | active: 2.06 µM | –
27 | Cc1ccc2nc3cc([N+](=O)[O-])cc([N+](=O)[O-])c3cc2c1 | active: 0.461 µM | –
28 | COc1ccc(C)cc1N1CC(C(=O)Nc2cccc(C(=O)NC3CC3)c2)CC1=O (stereo unspecified) | inconclusive [inhibitor, single point] | –
29 | C/C=C/c1cc(OC)c2c(c1)[C@H](C)[C@@H](c1ccc(O)c(OC)c1)O2 | inconclusive [inhibitor, single point] | –
30 | CCOCCCNC(=O)CN1C(=O)c2c(c3ccccc3n2C)C1c1ccc(OC)cc1 (stereo unspecified) | inconclusive [inhibitor, single point] | –
31 | COc1cccc(N(Cc2nnc3n2CCCCC3)C(=O)Nc2cccc(Cl)c2)c1 | – | inactive: -23.2%
32 | COc1ccc(OCc2cc(C(=O)NCCc3ccccc3)no2)c(Cl)c1 | active: 7.31 µM | –
33 | Cn1cc(/C=N/Nc2ccccc2)c2ccccc21 | inconclusive [inhibitor, single point] | –
34 | COc1ccccc1N1CCN(C(=O)c2ccc(N3CCCCS3(=O)=O)cc2)CC1 | – | inconclusive: -31.5% [inhibitor]
35 | O=C(NNC(=O)C1CCN(S(=O)(=O)c2ccc(Cl)cc2)CC1)c1ccccc1O | inconclusive [inhibitor, single point] | –
36 | c1ccc2sc(NC3=NCN(C4CCCCC4)CN3)nc2c1 | inconclusive [inhibitor, full curve] | –
37 | Cc1ccc(-n2ncc3c(N(CCO)Cc4ccccc4)ncnc32)cc1 | active: 11.6 µM | –
38 | COc1ccc(CCCc2nnc(SCC(=O)Nc3ccccc3F)o2)cc1C | inconclusive [inhibitor, partial curve, poor fit] | –
39 | CC1CN(c2nc(Nc3ccccc3F)nc(N)c2[N+](=O)[O-])CC(C)O1 (stereo unspecified) | inconclusive [inhibitor, single point] | –
40 | CCCN1CCCC[C@H]1C(=O)Nc1c(C)cccc1C | inconclusive [inhibitor, single point] | –
41 | Cc1ccc(CSCCNC(=O)c2ccccc2)cc1 | – | inactive: -21%
42 | Cc1ccc(NC2CCCN(C(=O)c3cccc4nccnc34)C2)cc1C (stereo unspecified) | – | inactive: -0.243%
43 | O=C(NCC(c1cccs1)S(=O)(=O)c1cccs1)c1ccc(C(F)(F)F)cc1 (stereo unspecified) | inconclusive [inhibitor, single point] | –
44 | CCOc1ncccc1C(=O)NCC(c1ccccc1)N(C)C (stereo unspecified) | – | inconclusive: -33.6% [inhibitor]
45 | CCOc1ccccc1NC(=O)N1CCCn2nc(C)cc21 | inconclusive [inhibitor, single point] | –
46 | O=C(COC(=O)C1CCN(c2ccc(C(F)(F)F)cn2)CC1)Nc1cc(F)ccc1F | – | inactive: -21.2%
47 | O=c1c(Cl)c(O)c2cccc3c4ccccc4n1c23 | – | inactive: -12.1%
48 | O=[N+]([O-])c1nccn1CC(O)CO (stereo unspecified) | – | inactive: -13.6%
49 | O=C(Cc1csc2nc(-c3ccccc3)cn12)NCc1ccc(F)cc1 | – | inactive: -14.7%
50 | CN1C(=O)c2ccccc2Sc2ccc(NC(=O)N3CCOCC3)cc21 | – | inactive: 1.28%

Row | SMILES | Potency | activity change, negative = growth inhibition
51 | Cc1ccc2c(SCC(=O)NCc3ccco3)nc(-c3ccc(F)cc3)nc2c1 | inconclusive [inhibitor, single point] | –
52 | CCN(CCCNc1cc2c(c(N)c1S(=O)(=O)O)C(=O)c1ccccc1C2=O)c1ccccc1 | inconclusive [inhibitor, partial curve] | –
53 | CCCn1c(N2CCC(Cc3ccccc3)CC2)nc2c1c(=O)[nH]c(=O)n2C | inconclusive [inhibitor, single point] | –
54 | Cc1ccc2cc3cc(C(=O)NC4CCCCC4)oc3nc2c1 | inconclusive [inhibitor, single point] | –
55 | OCCNCc1cccc(OCc2ccc(Cl)cc2)c1 | inconclusive [inhibitor, partial curve, poor fit] | –
56 | CCN(CC)C(=O)N1CCN(S(=O)(=O)c2ccc(C)c(C)c2)CC1 | inconclusive [inhibitor, partial curve, poor fit] | –
57 | O=C(CCCN1C(=O)/C(=C/c2ccco2)SC1=S)Nc1cccc(C(=O)O)c1 | – | inactive: 12.4%
58 | N#Cc1cn(CC(=O)N2CCCc3ccccc32)c2ccccc12 | – | inactive: -9.08%
59 | CC(C)(C)OC(=O)N[C@@H](Cc1c[nH]c2ccccc12)c1nnc(SCC(N)=O)o1 | – | inconclusive: -30.8% [inhibitor]
60 | Cc1ccc(C)c(C(=O)CCC(=O)NNC(=O)c2cccs2)c1 | – | inactive: -12.3%
61 | COc1ccc(N(C(=O)COc2ccc(Br)cc2)S(=O)(=O)c2ccc(C)cc2)cc1 | inconclusive [inhibitor, single point] | –
62 | O=C(c1ccc2ccccc2n1)N1CCN(S(=O)(=O)c2ccccc2)CC1 | inconclusive [inhibitor, single point] | –
63 | Cc1ccc(NC(=O)CCc2c(C)nn(-c3ccc(N4CCOCC4)nn3)c2C)cc1F | inconclusive [inhibitor, single point] | inconclusive: -36.5% [inhibitor]
64 | CN(C)c1nc(N)nc(CSc2nnnn2-c2ccc(Cl)cc2)n1 | inconclusive [inhibitor, partial curve] | –
65 | COC(=O)c1ccc2nc(-c3cccc(Br)c3)c(Cc3cccc(F)c3)n2c1 | inconclusive [inhibitor, partial curve, poor fit] | –
66 | COc1ccc(NS(=O)(=O)c2cc(NC(=O)c3ccc(=O)[nH]n3)ccc2N2CCOCC2)cc1 | inconclusive [inhibitor, single point] | –
67 | O=C(Nc1ccc(Cl)c(Cl)c1)OCc1cncs1 | inconclusive [inhibitor, single point] | –
68 | CCOC(=O)c1ccccc1NC(=O)CN1C(=O)NC(C)(CCc2ccccc2)C1=O (stereo unspecified) | inconclusive [inhibitor, single point] | –
69 | COc1ccccc1N=C1SC(C(=O)Nc2cccc(Cl)c2Cl)C(N)=C1C(N)=O (stereo unspecified) | active: 2.91 µM | –
70 | O=C(Nc1ccc(N2CCOCC2)c(Cl)c1)c1ccc(F)cc1 | inconclusive [inhibitor, partial curve] | –
71 | CCC(C)NC(=O)c1ccc(CSCc2ccccc2Cl)o1 (stereo unspecified) | inconclusive [inhibitor, single point] | –
72 | Cc1cccc(-n2cnc3cc([N+](=O)[O-])ccc32)c1 | inconclusive [inhibitor, single point] | –
73 | CCCOc1cc(C)c(Cl)cc1S(=O)(=O)N(CC)CC | active: 18.4 µM | –
74 | Cc1ccc(OCCCC(=O)Nc2ccc(Br)cc2)cc1 | – | inconclusive: -31.9% [inhibitor]
75 | CCNc1ncc2ncc(=O)n(Cc3cccs3)c2n1 | inconclusive [inhibitor, partial curve, poor fit] | –
